# Article PMC9911399, “Two distinct binding modes provide the RNA-binding protein RbFox with extraordinary sequence specificity”
# Where a chain is given by its changes, count along the chain named. The list shows a part of the results.
# T1: RBFOX1 RRM (Homo sapiens, UniProt Q9NWB1 109-208)
# T1 sequence: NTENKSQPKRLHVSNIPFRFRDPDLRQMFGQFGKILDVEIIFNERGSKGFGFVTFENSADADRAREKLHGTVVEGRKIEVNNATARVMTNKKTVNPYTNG
# B1: AAAUGGU (DNA:RNA)
# RNA: GGGAGACCGGAAUUCAGAUUGUCCAAAUGGUUUAAAUCCCGUCGUAGCCACCA
# DNA 1: CAATCTGAATTCCGGTCTCCC
# DNA 2: TGGTGGCTACGACGGGATT
# B2: ACGUAGU (DNA:RNA)
# RNA: B1 RNA with A26C, A27G, G29A
# DNA 1: CAATCTGAATTCCGGTCTCCC
# DNA 2: TGGTGGCTACGACGGGATT
# B3: GUCUAGA (DNA:RNA)
# RNA: B1 RNA with A25G, A26U, A27C, G29A, U31A
# DNA 1: CAATCTGAATTCCGGTCTCCC
# DNA 2: TGGTGGCTACGACGGGATT
# B4: GCAUACG (DNA:RNA)
# RNA: B1 RNA with A25G, A26C, G29A, G30C, U31G
# DNA 1: CAATCTGAATTCCGGTCTCCC
# DNA 2: TGGTGGCTACGACGGGATT
# B5: CCUUUGA (DNA:RNA)
# RNA: B1 RNA with A25C, A26C, A27U, G29U, U31A
# DNA 1: CAATCTGAATTCCGGTCTCCC
# DNA 2: TGGTGGCTACGACGGGATT
# B6: ACAUCUU (DNA:RNA)
# RNA: B1 RNA with A26C, G29C, G30U
# DNA 1: CAATCTGAATTCCGGTCTCCC
# DNA 2: TGGTGGCTACGACGGGATT
# B7: AACAUAG (DNA:RNA)
# RNA: B1 RNA with A27C, U28A, G29U, G30A, U31G
# DNA 1: CAATCTGAATTCCGGTCTCCC
# DNA 2: TGGTGGCTACGACGGGATT
# B8: CUAGCCC (DNA:RNA)
# RNA: B1 RNA with A25C, A26U, U28G, G29C, G30C, U31C
# DNA 1: CAATCTGAATTCCGGTCTCCC
# DNA 2: TGGTGGCTACGACGGGATT
# B9: GGGUGCU (DNA:RNA)
# RNA: B1 RNA with A25G, A26G, A27G, G30C
# DNA 1: CAATCTGAATTCCGGTCTCCC
# DNA 2: TGGTGGCTACGACGGGATT
# B10: GCUUAAC (DNA:RNA)
# RNA: B1 RNA with A25G, A26C, A27U, G29A, G30A, U31C
# DNA 1: CAATCTGAATTCCGGTCTCCC
# DNA 2: TGGTGGCTACGACGGGATT
# B11: UCGGCAA (DNA:RNA)
# RNA: GGGAGACCGGAAUUCAGAUUGUCCUCGGCAAUUAAAUCCCGUCGUAGCCACCA
# DNA 1: CAATCTGAATTCCGGTCTCCC
# DNA 2: TGGTGGCTACGACGGGATT
# B12: CCUAUAA (DNA:RNA)
# RNA: B11 RNA with U25C, G27U, G28A, C29U
# DNA 1: CAATCTGAATTCCGGTCTCCC
# DNA 2: TGGTGGCTACGACGGGATT
# B13: UACUGAG (DNA:RNA)
# RNA: B1 RNA with A25U, A27C, G30A, U31G
# DNA 1: CAATCTGAATTCCGGTCTCCC
# DNA 2: TGGTGGCTACGACGGGATT
# B14: CCAUAUU (DNA:RNA)
# RNA: B1 RNA with A25C, A26C, G29A, G30U
# DNA 1: CAATCTGAATTCCGGTCTCCC
# DNA 2: TGGTGGCTACGACGGGATT
# B15: GAUGGUC (DNA:RNA)
# RNA: B1 RNA with A25G, A27U, U28G, G30U, U31C
# DNA 1: CAATCTGAATTCCGGTCTCCC
# DNA 2: TGGTGGCTACGACGGGATT
# B16: AGUGGAC (DNA:RNA)
# RNA: B1 RNA with A26G, A27U, U28G, G30A, U31C
# DNA 1: CAATCTGAATTCCGGTCTCCC
# DNA 2: TGGTGGCTACGACGGGATT
# B17: UCAAUAU (DNA:RNA)
# RNA: B11 RNA with G27A, G28A, C29U, A31U
# DNA 1: CAATCTGAATTCCGGTCTCCC
# DNA 2: TGGTGGCTACGACGGGATT
# B18: GUGCGUU (DNA:RNA)
# RNA: B1 RNA with A25G, A26U, A27G, U28C, G30U
# DNA 1: CAATCTGAATTCCGGTCTCCC
# DNA 2: TGGTGGCTACGACGGGATT
# B19: UGGCUGC (DNA:RNA)
# RNA: B11 RNA with C26G, G28C, C29U, A30G, A31C
# DNA 1: CAATCTGAATTCCGGTCTCCC
# DNA 2: TGGTGGCTACGACGGGATT
# B20: UGGCGAC (DNA:RNA)
# RNA: B11 RNA with C26G, G28C, C29G, A31C
# DNA 1: CAATCTGAATTCCGGTCTCCC
# DNA 2: TGGTGGCTACGACGGGATT
# Target: T1, RBFOX1 RRM
# Test: EMSA; HiTS-Eq, 1 nM pool, 10 min; buffer printed only for the single-RNA assays: 10 mM Tris pH 7.5, 150 mM NaCl, 3.4 mM EDTA, 0.001% NP-40, 30 C
# Settings: tags: His6 N-terminal (pET28a); label: 5' 32P
# In short: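 Purified RbFox RRM (wild type or mutant) was equilibrated for 10 min in 50 µL with 1 nM of a 5′-radiolabelled pool of RNA with 7 randomized nucleotides, its flanks annealed to DNA oligonucleotides, across increasing protein concentrations. Free RNA was separated by 8% native PAGE, excised, reverse-transcribed, PCR-barcoded and sequenced on an Illumina HiSeq 2500. Relative association constants came from read-count changes of each variant against the control reaction, normalised to the cognate motif.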
row,Binder,binding signal
1,B1,0.00783 KA relative to UGCAUGU
2,B2,0.006 KA relative to UGCAUGU
3,B3,0.016 KA relative to UGCAUGU
4,B4,0.00943 KA relative to UGCAUGU
5,B5,0.0137 KA relative to UGCAUGU
6,B6,0.000772 KA relative to UGCAUGU
7,B7,0.00269 KA relative to UGCAUGU
8,B8,0.00639 KA relative to UGCAUGU
9,B9,0.0276 KA relative to UGCAUGU
10,B10,0.00706 KA relative to UGCAUGU
11,B11,0.0131 KA relative to UGCAUGU
12,B12,0.00109 KA relative to UGCAUGU
13,B13,0.02 KA relative to UGCAUGU
14,B14,0.000356 KA relative to UGCAUGU
15,B15,0.0172 KA relative to UGCAUGU
16,B16,0.00437 KA relative to UGCAUGU
17,B17,0.000624 KA relative to UGCAUGU
18,B18,0.0209 KA relative to UGCAUGU
19,B19,0.0373 KA relative to UGCAUGU
20,B20,0.00695 KA relative to UGCAUGU
